Test results published in the supplement of paper PMC11417369.
The list shows a part of the results.

The sequences below were run on PF3D7_0420300 AP2 domain 1 (GST-tagged) (assay: gcPBM binding intensity (ln(normalized median fluorescence intensity)); higher = stronger DNA binding).
How it was run: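 Probes on an Agilent 4 × 180k array were primer-extended, double-stranded and 36 bp long, taken from intergenic genomic regions, with negative controls added. GST-tagged P. falciparum DNA-binding domains from E. coli, about 25 μg on average, were applied to the array for 1 h in 1× PBS containing 1% milk, 0.2 mg/ml BSA, 0.5% salmon testes DNA and 0.03% Triton X-100. Binding intensity, obtained after Alexa488 anti-GST antibody detection and a 488 nm scan, is the highest Masliner-normalised natural-log median intensity across replicate spots of either probe orientation.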
With “AATTAAATGGATAAATGTACATATGTGAATATATTT [XGTACX_site84]” the “gcPBM binding intensity (ln)” value was 9.35. For “ATTTTATTTAAATACACACACATATATATATTATAT [CACACA_site4607]”, the “gcPBM binding intensity (ln)” value was 9.71. With “CACAGACACCCATACACACACATACCCATATATATA [CACACA_site5023]” the “gcPBM binding intensity (ln)” value was 10. In the case of “AATTATCAGGAATGATGTACTGAAATAAAAAAAAAA [XGTACX_site3280]”, the “gcPBM binding intensity (ln)” value was 9.11. “CTACATATGTATAATATGCACACGTCATTTTCCCCT [CACACA_site2107]” was tested, and the “gcPBM binding intensity (ln)” value was 9.41. For “ACACAAAAATGAAAAATGAAAAGGGTAATATATATA [CACACA_negctrl_site1490]”, the “gcPBM binding intensity (ln)” value was 9.5. In the case of “AAAAAAAAAAAAAAAGCACACATCATATTTTAATTC [CACACA_site9109]”, the “gcPBM binding intensity (ln)” value was 9.35. In the case of “ACCCAAGAGAAAAGAGAAAGAAATATGTGTATATTG [GTGCAC_negctrl_site214]”, the “gcPBM binding intensity (ln)” value was 9.33. In the case of “ATATATATATATATAACATGCAAAGTTCAAAAAAAA [TGCATGCA_site943]”, the “gcPBM binding intensity (ln)” value was 9.37. In the case of “TTATAGTAATAATAATGTACATTTATACACATATAT [XGTACX_site1965]”, the “gcPBM binding intensity (ln)” value was 9.28. “AAAAAAAACAGACACACACACACATATACATACATA [CACACA_site2665]” was tested, and the “gcPBM binding intensity (ln)” value was 10.2. “TTTTTTTTATTATAAATATATATATTATAAAACGAA [XGTACX_negctrl_site189]” was tested, and the “gcPBM binding intensity (ln)” value was 8.76. With “CATTCTACAATAAAAAGTACATATATATATTATATA [XGTACX_site921]” the “gcPBM binding intensity (ln)” value was 9.11. With TCAAAAAAAATTTTAGTGCATATTTTAGTCAAAACA the “gcPBM binding intensity (ln)” value was 8.73. With “TAATATTTCGTTAAGTTTTAAAGAAAAAAAAAAAAA [CACACA_negctrl_site1253]” the “gcPBM binding intensity (ln)” value was 8.78. With “ATTTAAATAATATGTACACACATTTAAAAAGTTATA [CACACA_site7347]” the “gcPBM binding intensity (ln)” value was 9.29. In the case of “ACACATATAATAGTTACATGCAAAAATACTTTTATT [TGCATGCA_site785]”, the “gcPBM binding intensity (ln)” value was 9.52. With “TTTTTATAACATAAAAGTACATATTTTTAATTTAAT [XGTACX_site4394]” the “gcPBM binding intensity (ln)” value was 8.87. For “AAATTAAATGATAGAGCATGCGCTAAAAATGAGAAA [TGCATGCA_site937]”, the “gcPBM binding intensity (ln)” value was 9.28. With “AAATTAAAAATAATTACACACATAGAAAAGTTATAT [CACACA_site7137]” the “gcPBM binding intensity (ln)” value was 9.72. With “TTTTGCAAATATTACTGTACACAATCTCATATAATT [XGTACX_site2584]” the “gcPBM binding intensity (ln)” value was 9.3. “TTTTCAGAAAGACATGCATACAAAAATAAAAAAGAT [TGCATGCA_site814]” was tested, and the “gcPBM binding intensity (ln)” value was 9.39. In the case of “AACAAAGAGAAATAAACACACACAAAATAAAGAAAA [CACACA_site8704]”, the “gcPBM binding intensity (ln)” value was 10.1. For “ATTAATTAAAATAGTTGTACAATCAAAAAAACAAAA [XGTACX_site7660]”, the “gcPBM binding intensity (ln)” value was 9.47. “TTTTTGTATGCTTCCCGACTACATTATGTCGTAAAT [GTGCAC_negctrl_site164]” was tested, and the “gcPBM binding intensity (ln)” value was 9.34. “AGAATATATAAGTATACACACATATATATATATATA [CACACA_site201]” was tested, and the “gcPBM binding intensity (ln)” value was 9.33. In the case of “ATATCGAAAATTTGGTGTACATTTTTATTTGTTCAA [XGTACX_site3094]”, the “gcPBM binding intensity (ln)” value was 9.3. For “GATATTACGTGTTTGGTATTTTTTGATGTTAATAGG [CACACA_negctrl_site105]”, the “gcPBM binding intensity (ln)” value was 9.51. With “TATAAAATAATTAAATGTACATAATATATAAAATAT [XGTACX_site6777]” the “gcPBM binding intensity (ln)” value was 9.31. For “TTATAAATATTCACTGTGCACTGATGGAATATAAAT [GTGCAC_site9739]”, the “gcPBM binding intensity (ln)” value was 9.21. For “TTTATTTTTCATTGGGGTACACAAGTTTATTTTTGA [XGTACX_site4262]”, the “gcPBM binding intensity (ln)” value was 9.22. For “ATATCGTTTTTAAATTGTACATTCACTATAGAATAA [XGTACX_site6442]”, the “gcPBM binding intensity (ln)” value was 9.22. For “TTCTTTGTTTTTTTTTTTTTTTTAAAAGATAATATT [XGTACX_negctrl_site381]”, the “gcPBM binding intensity (ln)” value was 9.13. For “ATATATTTATTTTGTGCACACAACGCAAACCTTTTA [CACACA_site3508]”, the “gcPBM binding intensity (ln)” value was 9.53. “ATTTTTTCTTTTCGATGTACCCTTCTTATTCTTTAT [XGTACX_site3782]” was tested, and the “gcPBM binding intensity (ln)” value was 9.77. With “TATATCGCCTTCAAAAGTACTCATATAAAAAAAAAA [XGTACX_site7123]” the “gcPBM binding intensity (ln)” value was 8.8. With “AAAAAAAAAAAAAAATGTACTTTTATTATTAATATA [XGTACX_site6357]” the “gcPBM binding intensity (ln)” value was 8.86. With “AGTTCATATTTAAAAAGTACATATTTAAAAACTTCT [XGTACX_site4882]” the “gcPBM binding intensity (ln)” value was 8.98. For “TTTGAACTTTTATATACACACATTATTATAGTATAG [CACACA_site6851]”, the “gcPBM binding intensity (ln)” value was 9.54. In the case of “ATGCATATATTTATGTGTACATATATTTGTAGGGGG [XGTACX_site6063]”, the “gcPBM binding intensity (ln)” value was 10.7. For “TATTTGTTCTGATCCTTTTATTCAACTTTTTTTTTT [CACACA_negctrl_site978]”, the “gcPBM binding intensity (ln)” value was 9.56. “GGCTAAAAGTTGCACACACACAAAAAAAAAAAAAAA [CACACA_site7531]” was tested, and the “gcPBM binding intensity (ln)” value was 9.56. With “ACCTTAATTATAATAACACACGAAAAGTGGACACAT [CACACA_site1750]” the “gcPBM binding intensity (ln)” value was 9.62. For “TTTTATTTTTAAAATTGTACATTATTATTGTTATTT [XGTACX_site1439]”, the “gcPBM binding intensity (ln)” value was 9.3.
